The campaign covered roughly 48,000 compounds. About 120 (0.25%) were called active. Another 4% or so got no clear call; they are omitted. Calls come from the whole dose curve; as a rule, active = well fitted activation curve with a large enough effect; inconclusive = small, poorly fitted or top-dose-only effect, or another doubt; inactive = no such curve, though single readings can be large or run the other way. The list shows a part of the results.

This experiment in a line: Primary qHTS for Identification of Small Molecule Activators of Huntingtin-Antisense Promoter Activity. Note: nearly all actives have a fitted effect of over 55% in size. The following applies: HEK293 HTT-AS promoter firefly luciferase reporter, 24 h; series mostly up to 57.5 µM; activity change, positive = activation: at the top concentration. The essentials: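 Firefly luciferase signal from promoter-reporter HEK293 cells was scaled between vehicle (0%) and zero RLU (-100%). Compounds were tested at final concentrations of up to 57.5 uM over 24 h at 37 degrees C. PTC124 at 50 uM final served as control inhibitor.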
Background: In qHTS, concentration-response curves come from the screen itself.
Take `COc1cccc2c1C(=O)c1c(O)c3c(c(O)c1C2=O)C[C@@](O)(C(=O)CO)C[C@@H]3O[C@H]1C[C@H](N)[C@@H](O)[C@H](C)O1`: the “activity change, positive = activation” value is inactive: -44.9%. On to `CC(C)CC(=O)NCC(c1ccc2c(c1)OCO2)N1CCN(c2ccccc2)CC1` (stereo not given), for which the “activity change, positive = activation” value was inactive: -11.6%.

For `COc1ccccc1CN1CCC(CNC(=O)c2cnn(-c3ccccc3Cl)c2C2CCN(C(=O)OC(C)(C)C)CC2)CC1`, the “activity change, positive = activation” value is inactive: -13.5%. On to `CCC(=O)Nc1ccc(Cl)c(-c2nc3ccccc3[nH]2)c1`, for which the “activity change, positive = activation” value is inactive: -11.2%. With `Cc1ccc(-n2ncc3c(N4CCCCCC4)ncnc32)cc1Cl` the figure was inactive: -79.6%. Take `Cc1cccc(NC(=O)c2ccc(-n3c(C)nnc3C)cc2)c1`: the activity change, positive = activation is inactive: 5.07% [at 11.5 µM, percent change from vehicle, -100% = no light]. The same measure for `COc1ccccc1CNC(=O)CCc1c(C)nc2cc(-c3ccc(Cl)cc3)nn2c1C`: inactive: -69.4%; for `CCOC(=O)c1c(NC(=O)c2ccc(OCC)c(Br)c2)sc2c1CCCC2`: inactive: -9.66%. Regarding `Cc1cc2oc(=O)c(CC(=O)NCCc3ccccc3F)c(C)c2c2occ(C(C)(C)C)c12`, the “activity change, positive = activation” value is inactive: -6.54%. In the case of `CC(=O)Nc1cc(C(=O)NCc2ccc(F)cc2)ccc1Sc1ccc(F)cc1`, the “activity change, positive = activation” value was inactive: -29.3%.

For `COc1c(N2C[C@@H]3CCCN[C@H]3C2)c(F)cc2c(=O)c(C(=O)O)cn(C3CC3)c12`, the “activity change, positive = activation” value is inactive: 0.58%. Turning to `CCCCN(C(=O)C1CCC(CNS(=O)(=O)c2cccc3nsnc23)CC1)c1ccccc1` (stereo not given), the “activity change, positive = activation” value was inactive: -31.9%. As to `CC(=O)Nc1ccc(NC(=O)CN(C)S(=O)(=O)c2ccc3c(c2)CCCC(=O)N3)cc1`, the “activity change, positive = activation” value is inactive: -6.29%.

Take `O=c1c2cc3c(cc2nc2sc(Nc4cccc([N+](=O)[O-])c4)nn12)OCO3`: the “activity change, positive = activation” value was inactive: -7.73%. `Cc1ccc(C)c(S(=O)(=O)c2nnn3c2nc(N2CCN(C)CC2)c2sccc23)c1`: the “activity change, positive = activation” value was inactive: -7.18%. Regarding `COc1ccc(CC(=O)NCC(c2cccs2)S(=O)(=O)c2ccc(F)c(C)c2)cc1` (stereo not given), the “activity change, positive = activation” value was inactive: 7.27%. The same measure for `Cc1cccc(CN2CCC(CNC(=O)Cn3ncc4c([nH]c5ccc(C)cc54)c3=O)CC2)c1`: inactive: -11.1%; for `COc1ccccc1C(=O)Nc1nc2n(n1)C(c1ccc(F)cc1)C=C(c1ccc(Cl)cc1)N2` (stereo not given): inactive: -37.7%; for `CCOC(=O)c1cc(S(=O)(=O)NCc2ccc(Cl)cc2)[nH]n1`: inactive: -19.6%.

`Cc1ccccc1CSc1ncc(Cl)c(C(=O)Nc2nc3ccc(F)cc3s2)n1`: the “activity change, positive = activation” value is inactive: -14.4%. With `COc1ccccc1C(=O)N/C(=C\c1cn(S(=O)(=O)N(C)C)c2ccccc12)C(=O)NCCCn1ccnc1`, the “activity change, positive = activation” value is inactive: -8.38%. Consider `CCc1ccc(CNC(=O)C2CCCN(c3nnc(C)c4c(C)n(-c5ccccc5)nc34)C2)cc1` (stereo not given), for which the “activity change, positive = activation” value was inactive: -15%.

As for `Cc1cc2n(n1)CCC(=O)N2Cc1ccc(C(=O)Nc2cc(Cl)ccc2C)cc1`, the “activity change, positive = activation” value was inactive: -35.9%. With `COc1ccccc1C(=O)Nc1ccc2nc(SCC(=O)N3CCCc4ccccc43)sc2c1`, the “activity change, positive = activation” value is inactive: -23%. `COc1ccc(OC)c(NC(=O)C2CCCN(S(=O)(=O)c3ccc4c(c3)CCCC(=O)N4)C2)c1` (stereo not given): the “activity change, positive = activation” value was inactive: -20.9%. For `COc1ccccc1NC(=O)C1=C(C)Nc2nc(SC)nn2C1c1ccccc1Cl` (stereo not given), the “activity change, positive = activation” value is inactive: 10.3%.

As for `COc1cc(-c2nc(SCC(=O)Nc3ccc4c(c3)OCO4)c(-c3ccccc3)[nH]2)cc(OC)c1OC`, the “activity change, positive = activation” value was inactive: -6.95%. With `COc1ccc(-c2nnc(SCC(=O)N3CCC(C)CC3)o2)cc1` the figure was inactive: 0.151%; with `COc1ccc(-c2nnc(C3CCN(S(=O)(=O)c4cccc(Cl)c4)CC3)o2)cc1`, inactive: -35.6%.

As for `COc1ccccc1CNC(=O)CSc1ncc(S(=O)(=O)c2ccc(C)c(Cl)c2)c(=O)[nH]1`, the “activity change, positive = activation” value is inactive: 10.4%.

As for `CNC(=O)C1CCC(Cn2c(=O)c3sccc3n(CC(=O)N3CCCC(C)C3)c2=O)CC1` (stereo not given), the “activity change, positive = activation” value was inactive: -11.9%. With `CCCN(CCC)CCc1cccc2c1CC(=O)N2`, the “activity change, positive = activation” value is inactive: -1.17%. With `COCCCNC(=O)C1CCN(Cc2cc3ccccc3n2Cc2cccc(C)c2)CC1` the figure was inactive: -21.7%. On to `O=S(=O)(c1ccc(F)cc1)N1CCC(Oc2cccc(C(F)(F)F)c2)CC1`, for which the “activity change, positive = activation” value was inactive: -28.2%. With `COc1c(Cl)cc(Cl)cc1C(=O)Nc1cccc(-c2nc3ccccc3o2)c1C`, the “activity change, positive = activation” value was inactive: -2.01%. Consider `CCc1ccccc1NC(=O)c1cn(C)c(=O)c2ccccc12`, for which the “activity change, positive = activation” value is inactive: -5.79%. Turning to `COc1ccc(S(=O)(=O)N2Cc3ccccc3CC2C(=O)Nc2ccc(C)cc2)cc1OC` (stereo not given), the “activity change, positive = activation” value is inactive: 0.878%. Turning to `COc1ccc(CCNC(=O)CCCn2c(=O)c3ccccc3n(Cc3ccccc3)c2=O)cc1OC`, the “activity change, positive = activation” value was inactive: -36.2%. With `COc1cccc(CNC(=O)C(=O)NCC(c2cccs2)S(=O)(=O)c2ccccc2)c1` (stereo not given), the “activity change, positive = activation” value is inactive: -30%. The same measure for `C/C=C/c1ccc(OC)cc1`: inactive: -0.378%.

Take `Cc1cccc(CCNC(=O)c2cc(S(=O)(=O)N3CCCCC3)c[nH]2)c1`: the “activity change, positive = activation” value was inactive: -18.5%. With `Cc1cccc(N2CCN(C(=O)c3ccc4c(c3)N(Cc3ccccc3)C(=O)c3ccccc3S4(=O)=O)CC2C)c1` (stereo not given) the figure was inactive: -28.5%; with `CCC(C)CCCCC(=O)N[C@@H](CCN)C(=O)NC(C(=O)N[C@H](CCN)C(=O)N[C@@H]1CCNC(=O)C([C@@H](C)O)NC(=O)[C@@H](CCN)NC(=O)[C@@H](CCN)NC(=O)[C@@H](CC(C)C)NC(=O)[C@H](Cc2ccccc2)NC(=O)[C@H](CCN)NC1=O)[C@@H](C)O` (stereo not given in full), inactive: -4.13%.

Take `Cc1c2cnn(-c3ccccc3)c(=O)c2c(C)n1C(C)C(=O)Nc1ccccc1C(F)(F)F` (stereo not given): the “activity change, positive = activation” value was inactive: -23.7%. Regarding `CCOC(=O)CC(NC(=O)Cn1nnc(-c2ccccc2Cl)n1)c1ccc(OC)cc1` (stereo not given), the “activity change, positive = activation” value was inactive: -14.7%.

Source of the values: PubChem BioAssay AID1508624 (National Center for Advancing Translational Sciences (NCATS), 2021).
